Measured values reported in the antibiotic and cytotoxicity screens of Wong et al. (2023).
This is one part of the list.

Columns and labels:
HSkMC = human skeletal muscle cells; assay: cytotoxicity call (relative viability < 0.9); settings: 10 µM
HepG2 = assay: cytotoxicity call (relative viability < 0.9); settings: 10 µM
S. aureus RN4220 = assay: growth inhibition call (relative growth <= 0.2); settings: 50 µM

| Structure (SMILES) | cytotoxicity call (HSkMC) | cytotoxicity call (HepG2) | growth inhibition call (S. aureus RN4220) |
| --- | --- | --- | --- |
| CS(=O)(=O)NCc1cnc2n1CCN(C(=O)[C@H]1CCOC1)CC2 | inactive | inactive | inactive |
| C[C@H]1CN([C@@H](C)CO)C(=O)Cc2cc(NC(=O)Nc3ccccc3)ccc2O[C@H]1CN(C)Cc1ccc(Cl)c(Cl)c1 | active | active | inactive |
| O=C(C[C@H]1C=C[C@H](NS(=O)(=O)c2ccccc2F)[C@@H](CO)O1)NCCCN1CCOCC1 | inactive | inactive | inactive |
| O=C1c2c(O)ccc(O)c2C(=O)c2c(NCCNCCO)ccc(NCCNCCO)c21 | active | active | inactive |
| CN1C(=O)c2cc(NC(=O)c3cnccn3)ccc2OC[C@H]2O[C@@H](CC(=O)Nc3cc(F)ccc3F)CC[C@@H]21 | inactive | inactive | inactive |
| COc1ccc(NC(=O)Nc2ccc3c(c2)C(=O)N([C@@H](C)CO)C[C@@H](C)[C@H](CN(C)Cc2ccc(Oc4ccccc4)cc2)O3)cc1 | inactive | inactive | inactive |
| C[C@H](CO)N1C[C@H](C)[C@@H](CN(C)Cc2ccncc2)Oc2ccc(NS(=O)(=O)c3cn(C)cn3)cc2C1=O | inactive | inactive | inactive |
| COc1ccc(NC(=O)N(C)C[C@@H]2Oc3c(NC(=O)C4CC4)cccc3C(=O)N([C@@H](C)CO)C[C@H]2C)cc1 | inactive | inactive | inactive |
| C[C@@H]1CN([C@H](C)CO)C(=O)c2cc(NC(=O)CCCN(C)C)ccc2O[C@@H](C)CCCCO[C@H]1CN(C)C(=O)Nc1cccc2ccccc12 | inactive | inactive | inactive |
| C(=N\c1cc(-c2ccccc2)nn1-c1ccccc1)/c1ccccc1 | inactive | inactive | inactive |
